From publication PMC4336329 (PLoS ONE, 2015)
The campaign covered roughly 310,000 compounds. About 14,000 (4.5%) showed an effect of 50% or more. The effect is printed as a negative number. This is one part of the list.

Each compound was assayed against human ether-à-go-go-related gene (hERG) potassium channel (human, UniProt Q12809) (assay: primary screen, population patch clamp on CHO cells stably expressing hERG).
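Further: peak tail current of the secondary pulse compared with the same well before compound.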

human ether-à-go-go-related gene (hERG) potassium channel, sequence (Q12809 whole entry, looked up): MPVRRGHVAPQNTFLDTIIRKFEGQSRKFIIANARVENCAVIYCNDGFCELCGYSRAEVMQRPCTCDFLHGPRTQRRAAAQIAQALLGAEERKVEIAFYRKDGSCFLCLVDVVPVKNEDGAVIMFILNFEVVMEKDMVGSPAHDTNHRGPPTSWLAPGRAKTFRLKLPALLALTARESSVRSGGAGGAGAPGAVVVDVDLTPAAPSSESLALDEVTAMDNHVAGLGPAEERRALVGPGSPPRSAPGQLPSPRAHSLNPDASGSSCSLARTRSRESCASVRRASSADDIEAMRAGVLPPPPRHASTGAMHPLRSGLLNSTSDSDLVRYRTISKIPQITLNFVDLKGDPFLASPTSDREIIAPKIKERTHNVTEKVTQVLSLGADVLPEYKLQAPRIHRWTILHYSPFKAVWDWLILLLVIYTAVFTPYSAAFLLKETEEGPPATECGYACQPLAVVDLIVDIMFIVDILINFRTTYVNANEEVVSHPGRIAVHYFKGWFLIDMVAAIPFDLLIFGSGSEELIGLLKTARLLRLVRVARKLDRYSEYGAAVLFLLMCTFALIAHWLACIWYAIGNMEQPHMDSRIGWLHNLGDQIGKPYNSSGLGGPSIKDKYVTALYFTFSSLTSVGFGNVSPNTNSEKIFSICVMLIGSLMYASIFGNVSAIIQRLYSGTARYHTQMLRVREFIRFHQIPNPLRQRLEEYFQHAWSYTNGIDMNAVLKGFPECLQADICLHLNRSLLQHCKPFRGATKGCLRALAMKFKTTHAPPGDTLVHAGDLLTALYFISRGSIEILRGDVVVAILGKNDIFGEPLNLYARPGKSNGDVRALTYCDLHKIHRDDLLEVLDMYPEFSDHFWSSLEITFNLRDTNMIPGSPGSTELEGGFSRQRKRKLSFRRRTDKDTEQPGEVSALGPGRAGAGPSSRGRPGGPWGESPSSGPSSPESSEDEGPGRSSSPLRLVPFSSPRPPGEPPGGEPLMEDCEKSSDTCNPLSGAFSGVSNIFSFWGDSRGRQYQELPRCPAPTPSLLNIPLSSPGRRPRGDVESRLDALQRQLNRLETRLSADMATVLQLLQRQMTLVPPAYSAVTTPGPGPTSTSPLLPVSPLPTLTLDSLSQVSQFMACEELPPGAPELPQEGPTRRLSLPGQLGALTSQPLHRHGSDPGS

Row | SMILES | hERG current change (%, negative = inhibition) at 10uM [%]
1 | Cc1cccc(-n2c(C)nc3ccccc3c2=O)c1C | 1.23
2 | COc1ccc(C(=O)Nc2ccc(C(=O)NCCc3ccc(OC)c(OC)c3)cc2)cc1 | 30.5
3 | CCn1c(COc2ccc(Cl)cc2)nnc1SCc1nc2ccccc2[nH]1 | -17.7
4 | O=S(=O)(c1ccccc1)c1nc(-c2cccs2)oc1NCC1CCCO1 (stereo not drawn) | -21.1
5 | CN(C)c1cccc(C(=O)N2CCCC(CCC(=O)NCc3ccccc3F)C2)c1 (stereo not drawn) | -2.15
6 | COC(=O)COc1ccc(Cl)cc1C1Nc2ccccc2C(=O)N1c1ccc(OC)cc1 (stereo not drawn) | -16.9
7 | COc1ccc(NC(=O)CCC(=O)N/N=C/c2cccnc2)cc1 | 16.7
8 | CCOc1ccc(NC(=O)C2CCN(S(=O)(=O)c3ccc4c(c3)CC(C)N4C(C)=O)CC2)cc1 (stereo not drawn) | 19.5
9 | C/C(=N\NC(=O)c1nnn(-c2nonc2N)c1-c1cccs1)c1cccc(O)c1 | -11.6
10 | CC1=C(C(=O)NC2CC(C)(C)Cc3c2cnn3-c2ccc(C)cc2)OCCO1 (stereo not drawn) | 3.64
11 | O=C(/C=C/c1ccc(O)c(O)c1)NC(=O)c1ccccc1O | 6.74
12 | NS(=O)(=O)c1ccc(N=Cc2ccc(Br)s2)cc1 | 8.93
13 | Cc1ccc(-n2nc3ccc(NC(=S)NC(=O)/C=C/c4ccco4)cc3n2)cc1 | 7.85
14 | CC(=O)N1c2ccc(S(=O)(=O)NCCc3ccc(Cl)cc3)cc2CC1C (stereo not drawn) | -18.6
15 | C[C@@H]1CCC2[C@](C)(CO)[C@@H](O)CC[C@]2(C)[C@@]12CC[C@@](CO)(CC(=O)[O-])O2.[Na+] (stereo partly drawn) | 20.3
16 | CCC(C(=O)NC(C)(C)C)N(C(=O)c1ccc(Cl)nc1)C1CCCC1 (stereo not drawn) | 9.74
17 | Cc1ccc(Oc2cc(N3CCOCC3)nc(-c3ccccc3)n2)cc1 | 5.63
18 | CCCCOc1ccc2ccccc2c1C=O | 8.47
19 | CCCCC(c1nnnn1CS(=O)(=O)c1ccc(C)cc1)N1CCN(C)CC1.Cl (stereo not drawn) | 3.52
20 | Cc1cccn2c(=O)c(/C=C(\C#N)S(=O)(=O)c3ccccc3)c(N3CCC(C(N)=O)CC3)nc12 | -75.4
21 | COc1cccc(/C=C/C(=O)NCC2CCCCC2)c1 | 2.66
22 | COC(=O)CCCC1=CC2=CC(=O)C(C)(OC(=O)c3cccs3)C(=O)C2=CN1C1CC1 (stereo not drawn) | 10.5

Row | SMILES | hERG current change (%, negative = inhibition) at 10uM [%]
23 | O=C(NC1CCCCC1)C(c1ccco1)N(C(=O)c1csnn1)c1ccccc1 (stereo not drawn) | 0.857
24 | CN(C)S(=O)(=O)N1CCC(CO)(CCc2ccccc2)CC1 | -8.86
25 | COc1cc2c(cc1OC)C(C)N(C(=O)c1cc(Cl)nc(Cl)c1)CC2 (stereo not drawn) | -4.17
26 | O=C(Nc1ccc(F)cc1)c1ccc(Br)c(S(=O)(=O)N2CCOCC2)c1 | -58.8
27 | CC(=O)Nc1cccc(NC(=O)CCn2c(=O)sc3ccccc32)c1 | 29.2
28 | Cc1ccc(OCC(=O)NNC(=O)CCC(=O)Nc2ccc(C)cc2C)cc1 | 19.7
29 | CC(=O)c1cccc(NC(=O)CCc2nnc3ccc(NCc4ccc5c(c4)OCO5)nn23)c1 | 26.7
30 | Cc1nnc(-c2cnn(-c3ccccc3)c2N)n1Cc1ccncc1 | -1.74
31 | CC(=O)c1ccc(NC(=O)CN2C(=O)CCC2=O)cc1 | -19.8
32 | CCCCn1c(N)c(N(CCOC)C(=O)COC(=O)COc2cccc(C(C)=O)c2)c(=O)[nH]c1=O | 13.7
33 | COC(=O)c1cn(-c2ccccc2)c(C)c1C(=O)OC | 6.91
34 | COc1ccc(C(=O)NC(=S)NNC(=O)c2cccnc2)cc1 | 14
35 | CCOc1ccc(OCCSc2nc3ccccc3c(=O)[nH]2)cc1 | 16.3
36 | COc1ccccc1-c1nnc(SC)n1C | 36.9
37 | COc1ccccc1C(=O)COC(=O)c1cccc(-n2cnnn2)c1 | -12.3
38 | CSc1nc2cc(C)nn2c(-c2ccc(C(C)(C)C)cc2)c1C#N | 10.5
39 | Cc1ccc(CN2CCN(C)CC2)c(C)c1 | -4.78
40 | CC12c3ccccc3C(c3ccccc31)C1C(=O)N(Cc3cccnc3)C(=O)C12 (stereo not drawn) | -21.2
41 | Cc1cccc(C)c1NC(=O)C(NC=O)c1ccc(N(C)C)cc1 (stereo not drawn) | -11.1
42 | CCOC(=O)/C(C#N)=C1/C=CN(Cc2ccccc2)C=N1 | -35
43 | C=CCOC(=O)C1=C[C@H](c2coc3ccccc3c2=O)[C@@H](CCCO)[C@H](OCC)O1 | -12.8
44 | NS(=O)(=O)c1cccc(NC(=O)c2ccccc2NS(=O)(=O)c2ccc(F)cc2)c1 | -0.775

Row | SMILES | hERG current change (%, negative = inhibition) at 10uM [%]
45 | CC1CCCC(NC(=O)Cc2ccc(Br)cc2)C1C (stereo not drawn) | 8.51
46 | COC(=O)c1cc(C(=O)Nc2ccc(S(N)(=O)=O)cc2)cc([N+](=O)[O-])c1 | 15.7
47 | Cl.FC(F)(F)c1cc(-c2ccco2)nc(N2CCN(Cc3ccccc3)CC2)n1 | 2.47
48 | COc1cc(/C=C/C(=O)Nc2ccc3nc4n(c(=O)c3c2)CCCC4)cc(OC)c1OC | 0.353
49 | CC(C)(C)C(=O)N1CCn2c1nc1ccccc12 | 7.28
50 | COc1ccc(S(=O)(=O)N2CCN(CC(=O)NCCc3cccs3)CC2)cc1 | -36
51 | CCN(CC(=O)Nc1ccccc1C(F)(F)F)C(=O)CCc1nc2sc3c(c2c(=O)[nH]1)CCCC3 | 0.77
52 | Cc1c(Cl)c(C(=O)NNC(=S)Nc2ccccc2)nn1C | -0.932
53 | CCc1ccc(CNC(=O)CCn2nc(C)c3c(C)n(-c4ccccc4)nc3c2=O)cc1 | 6.51
54 | Cc1ccc(CSc2nnc3ccc(-c4ccncc4)nn23)cc1 | -42.4
55 | O=C(Cc1cccc2ccccc12)Nc1ccc(Br)cc1C(=O)O | 16.2
56 | Cc1ccc(CCC(=O)Nc2nccs2)o1 | 9.24
57 | CCOC(=O)C1(Cc2cccc(OC)c2)CCN(C/C=C/c2ccc(OC)cc2)CC1 | -72.3
58 | O=C(OCc1nc2ccccc2[nH]1)C12CC3CC(CC(C3)C1)C2 | -19.2
59 | Nc1nc(SCC(=O)OCc2ccccc2)[nH]c(=O)c1NC(=O)c1ccco1 | -5.67
60 | Cc1ccccc1CC(=O)Nc1ccc(S(=O)(=O)N2CCOCC2)cc1 | 7.15
61 | COc1ccc(/C=C/C(=O)NCC(=O)N/N=C(/C)c2ccco2)cc1 | 2.56
62 | Cc1cc(-c2cccs2)c2c(n1)sc1c(=O)[nH]c(=O)[nH]c12 | 5.3
63 | O=C(NNc1ccccc1[N+](=O)[O-])Nc1ccc(F)cc1 | -11.3
64 | CC(C)C(=O)NC(=S)Nc1ccc(S(=O)(=O)Nc2nccs2)cc1 | 16
65 | COc1cc(C)c2c(c1C=O)Oc1c(c(C)c(O)c3c1C(O)OC3=O)OC2=O (stereo not drawn) | 19.4
66 | O=C(CSc1ncn[nH]1)c1ccc(OC(F)F)cc1 | 4.02

Row | SMILES | hERG current change (%, negative = inhibition) at 10uM [%]
67 | Cc1cc(C)n2nc(SC(C)C(=O)N3CCC4(CC3)OCCO4)nc2n1 (stereo not drawn) | -0.197
68 | Cc1ncc(C(=O)O)c(C(=O)O)c1N | 13.4
69 | Cn1c(NC(=O)c2ccc(Cl)cc2)c(-c2ccccn2)c(=O)c2ccccc21 | -5.96
70 | COc1ccc(C(=O)/C=C/C(=O)N(CC(=O)NC2CCCCC2)CC2CCCO2)c(O)c1 (stereo not drawn) | 12.5
71 | Cc1cc(S(=O)(=O)NCc2ccc3c(c2)OCO3)ccc1F | -20.8
72 | COc1ccc(C2c3c(nc[nH]c3=O)Oc3nc[nH]c(=O)c32)cc1 | 1.92
73 | Cc1ccccc1C(=O)Nc1ccnn1C1CCN(C(=O)c2cnsn2)CC1 | -30.4
74 | CC(=O)c1ccc(NC(=O)c2ccc(NC(=O)c3ccco3)cc2)cc1 | 21.6
75 | Cn1c(C(=O)N2CCN(c3ccc(Cl)cc3)CC2)cc2c(=O)[nH]c3ccccc3c21 | -114
76 | COc1ccc(CNc2nccs2)cc1 | 6.49
77 | CCN(CC)c1ccc(C=C(c2nnnn2-c2ccc(C)cc2)c2nnnn2-c2ccc(C)cc2)cc1 | 11.4
78 | FC(F)(F)Sc1ccc(NC(=S)NCc2ccccc2)cc1 | 11
79 | CCN(CCNC(=O)CC1Oc2ccccc2NC1=O)c1ccccc1 (stereo not drawn) | 9.82
80 | CCC(C)NC(=S)N1CCN(Cc2ccccc2)CC1 (stereo not drawn) | 3.92
81 | O=C(c1ccc(Cl)c([N+](=O)[O-])c1)N(c1ccccn1)c1ccccn1 | -19.6
82 | CC(=O)c1ccc(N=C2SCCCN2C(=O)C2CCCCC2)cc1 | 5.8
83 | Cn1c(CC(=O)Nc2ccc(Cl)c(Cl)c2)nnc1SCC(=O)Nc1nccs1 | -3.76
84 | CCCC(=O)c1ccc(N2CCCC2)c(F)c1 | 6.96
85 | N#CCN(C(=O)COC(=O)CCCNC(=O)c1ccc(Cl)cc1)c1ccccc1 | -26
86 | CCCn1c2ccccc2c2cnn(CC(=O)NC3CCCCC3)c(=O)c21 | 2.23
87 | Cc1ccc2nc(SCn3nnc4ccccc4c3=O)[nH]c2c1 | 18
